Assay results taken from PubChem BioAssay AID1159614 (National Center for Advancing Translational Sciences (NCATS), 2016).
In all, about 45,000 compounds went through this assay and about 65 (0.1%) were called active. The call rests on the fitted dose curve; in most records, active means well fitted activation curve with a large enough effect; inconclusive means small, poorly fitted or top-dose-only effect; inactive means no such curve, though single readings can be large or run the other way. Some of the results follow.

What follows are molecules tested against Galactocerebrosidase (Homo sapiens) (UniProt P54803) (assay: A Novel Cell-Based Assay to Identify Small Molecules for B -Galactocerebrosidase). Conditions: 145M-Twi-hGALC-G270D cells (Twitcher mouse brain line with human GALC G270D), HMU-beta-Gal fluorescence, 48 h; series mostly up to 57.5 µM; activation: at the top concentration.
In short: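 Fluorogenic HMU-b-Gal hydrolysis (0.1 mM final, pH 5.2 citrate-phosphate with 1 mg/mL sodium taurocholate; carbonate stop buffer) measures mutant GALC activity after compound treatment of live 145M-Twi Twitcher brain cells stably carrying human GALC-G270D, with wild-type GALC line alongside; activation sought.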
Further: 0% is about no effect; nearly all actives have a fitted effect of over 65% in size.

Chain of UniProt P54803 (P54803 whole entry, looked up): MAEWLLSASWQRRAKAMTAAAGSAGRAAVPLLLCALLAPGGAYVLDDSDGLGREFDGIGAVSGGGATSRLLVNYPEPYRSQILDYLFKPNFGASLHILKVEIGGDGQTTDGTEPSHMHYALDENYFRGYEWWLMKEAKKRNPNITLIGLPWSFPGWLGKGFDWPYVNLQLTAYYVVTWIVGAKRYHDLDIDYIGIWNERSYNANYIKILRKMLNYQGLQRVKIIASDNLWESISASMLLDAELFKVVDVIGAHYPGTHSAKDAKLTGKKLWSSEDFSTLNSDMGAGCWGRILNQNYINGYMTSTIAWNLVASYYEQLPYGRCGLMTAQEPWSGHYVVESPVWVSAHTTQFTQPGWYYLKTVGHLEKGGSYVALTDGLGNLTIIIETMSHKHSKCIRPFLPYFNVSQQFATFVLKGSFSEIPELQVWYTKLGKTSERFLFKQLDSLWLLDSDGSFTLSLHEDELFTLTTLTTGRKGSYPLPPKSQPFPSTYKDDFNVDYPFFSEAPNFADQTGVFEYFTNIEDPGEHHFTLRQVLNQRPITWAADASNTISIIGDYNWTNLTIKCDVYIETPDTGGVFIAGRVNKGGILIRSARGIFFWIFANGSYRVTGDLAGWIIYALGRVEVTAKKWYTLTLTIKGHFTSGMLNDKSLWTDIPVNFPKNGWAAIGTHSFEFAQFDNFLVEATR

activation, inactive:
COc1cccc(-c2ccc(-c3noc(-c4ccccc4Br)n3)c(OC)n2)c1 -11.2%
Cc1cccc(-c2noc(-c3ccc(NCc4ccco4)c([N+](=O)[O-])c3)n2)c1 -7.54%
Nc1ccc(S(=O)(=O)NC(=O)c2ccccc2)cc1 3.74%
O=C(c1ccco1)N1CCN(c2nc3c(F)cc(F)cc3s2)CC1 -26.3%
O=C(/C=C/c1ccco1)Nc1ccc(F)cc1 -10.2%
COC(=O)c1c(SC)nc2ccccc2c1OCc1ccc(Br)cc1 -0.583%
CCOC(=O)C1CCCN(c2nc3c(S(=O)(=O)c4ccc(Br)cc4)nnn3c3ccsc23)C1 (stereo unspecified) -15.6%
COc1cc(OC)cc(C(=O)Nc2cc(-c3nc4ccccc4[nH]3)ccc2C)c1 -8.6%
Cc1ccccc1CNC(=O)c1nn(-c2ccccc2F)nc1CO 1.09%
COc1cccc2c1Oc1ncccc1N(C(=O)CCC(=O)NCCC(C)C)C2 -2.45%
COc1ccc(C(=O)Nc2ccc(-c3nnc4n3CCCCC4)cc2)cc1 3.74%
CCn1nc(-c2ccccc2)c(-c2ccccc2)c(C(=O)Nc2ccc(S(N)(=O)=O)cc2)c1=O 0.965%
O=c1c2sccc2n(Cc2cc(=O)n3ccccc3n2)c(=O)n1-c1cc(F)ccc1F -13.3%
CCOC(=O)CN1CCCC1=O -15.4%
OC[C@H]1O[C@@H](O[C@@H]2[C@@H](CO)O[C@](O)(CO)[C@H]2O)[C@H](O)[C@@H](O)[C@H]1O -2.52%
COc1ccc(CCNC(=O)CSc2nc3nc(C)c(Cc4ccc(C)cc4)c(C)n3n2)cc1OC -22.8%
CCN(CC)CCCNc1cc(-c2ccccc2)nc(C)n1 -13.7%
Cc1ccc(C)c(OCCn2c(C3CC(=O)N(Cc4ccc(F)cc4)C3)nc3ccccc32)c1 (stereo unspecified) -32%
CCN1CCN(C(=O)c2ccc3c(c2)N(Cc2cccc(Cl)c2)C(=O)c2ccccc2S3=O)CC1 (stereo unspecified) -16.4%
Cc1cc(C)c(NC(=O)CSc2nc3ccccc3c3nc(CCn4cncc4C)nn23)c(C)c1 -4.29%
O=S(=O)(c1ccc(Cl)cc1)c1nc(-c2ccccc2Br)oc1NCc1ccccc1 -14.9%
C=C(CC)C(=O)c1ccc(OCC(=O)O)c(Cl)c1Cl -8.5%
COc1cc(C(=O)N(Cc2ccc(F)cc2)Cc2ccco2)cc(OC)c1OC 0.483%
Cc1ccc(N(CC(=O)Nc2cccc(Cl)c2C)S(=O)(=O)c2c(C)noc2C)cc1 -8.07%
COc1ccc(Cn2c(=O)[nH]c3cc(C(=O)NCCC(C)C)ccc3c2=O)cc1 -10.1%
CCn1c(C)c(C)c2cc(C(=O)NCCCN3CCCCC3C)ccc21 (stereo unspecified) -2.07%
COc1ccc(CNC(=O)CS(=O)Cc2nc(-c3ccc(OC)c(OC)c3)oc2C)cc1 (stereo unspecified) -14.6%
CCOc1ccc2nc(N3CCN(C(=O)c4ccc(S(=O)(=O)CC)cc4)CC3)sc2c1 -33.9%
COc1ccc(-n2cc(C(=O)N(CCN(C)C)Cc3ccccc3)c3ccccc3c2=O)cc1 3.26%
Cc1ccc(/C=C/C(=O)Nc2nc(-c3cccs3)ns2)cc1 -13.1%
CCc1c(C)nc2nncn2c1Nc1ccc(Cl)cc1 -12.4%
COc1ccc(-n2c(=O)c3c4c(sc3n(Cc3ccc(C)cc3C)c2=O)CCC4)c(OC)c1 -5.23%
CCc1nc2ccccc2n2c(-c3ccccc3)c3c(=O)n(C)c(=O)n(C)c3c12 -15.3%
COc1cc(C(CC(=O)NCc2ccccc2)N2Cc3ccccc3C2=O)cc(OC)c1OC (stereo unspecified) -12.6%
CCC(C(=O)Nc1ccc(C(C)=O)cc1)n1cnc2nc3c(cc2c1=O)CCCC3 (stereo unspecified) -21.4%
COc1ccc(OC)c(CNC(=O)Cn2ncc3c([nH]c4ccc(C)cc43)c2=O)c1 4.1%
CCOc1ccccc1NS(=O)(=O)c1ccc2c(c1)CC(C)N2C(=O)C1CC1 (stereo unspecified) -18%
O=C(NCCc1csc(-c2ccc(F)cc2)n1)c1ccco1 -16.2%
CC1=C(C(=O)Nc2cc(Cl)ccc2C)C2(CCCCC2)OC1=O -9.24%
Cc1cc(C)n2nc(CNC(=O)c3ccccc3Cl)nc2n1 -4.03%
Cc1cc(C)cc(NC(=O)CCc2nnc3n(C)c(=O)c4sccc4n23)c1 -4.09%
CCOC(=O)c1c(C)[nH]c(C)c1S(=O)(=O)N(C)CC(=O)N1CCN(c2ccc(Cl)cc2)CC1 -15.2%
COC(=O)C1=C(C)N=C2SCCC(=O)N2C1c1ccc(OCc2ccccc2)c(OC)c1 (stereo unspecified) -10.7%
Cc1ccc(-c2c(C(=O)N3CCN(c4cccc(C)c4)C(C)C3)oc(=O)c3ccccc23)cc1 (stereo unspecified) 2.96%
CCC(CC)C(=O)OCc1cc(=O)n2nc(C3CCCCC3)sc2n1 0.433%
CCOc1ccc(CN2CCc3nc(N4CCN(c5ncccn5)CC4)ncc3C2)cc1OC -10.7%
CC(C)(C)OC(=O)N1CCC(c2c(C(=O)NCCc3ccsc3)cnn2-c2ccccc2Cl)CC1 -17.5%
CCOc1ccc(N2C(=O)CS(=O)(=O)C23C(=O)N(Cc2cccc(Cl)c2)c2ccccc23)cc1 (stereo unspecified) -20.6%
COC(=O)c1c(SC)nc2ccccc2c1OCc1ccccc1Cl -1.57%
CCOc1ccc(NC(=O)C2CCN(c3nc4ccccc4[nH]3)CC2)cc1 -13.4%
Cc1ccc(-c2nc3c(c(SCC(=O)N(C)c4ccccc4)n2)Cc2c(CO)cnc(C)c2O3)cc1 -20.4%
CCOC(=O)c1ccc(NC(=O)CSc2ccc(-c3ccccn3)nn2)cc1 -12.5%
CCN(CC)c1cc(C)c2cc(NC(=O)c3ccccc3Cl)ccc2n1 -11.6%
CCC1CN(C(=O)NCc2ccccc2)c2cc(Cl)ccc2O1 (stereo unspecified) -20%
O=C(Nc1cccc(OCc2cc(=O)n3ccccc3n2)c1)c1ccccc1Br -30%
COc1ccc(S(=O)(=O)NCCc2nnc3ccc(SCC(=O)Nc4cc(C)cc(C)c4)nn23)cc1 -5.08%
COc1ccc(N2CC(NC(=O)COc3ccc(F)cc3)CC2=O)cc1OC (stereo unspecified) -10.8%
CCOCCn1c(C2CCN(CCc3ccc(C(C)(C)C(=O)O)cc3)CC2)nc2ccccc21 -8.16%
CC(C)(C)OC(=O)N1CCC(c2c(C(=O)Nc3ccc4c(c3)OCCO4)cnn2-c2ccc(F)cc2F)CC1 -10.6%
CCOC(=O)C(=O)NCC(c1cccnc1)N1CCN(c2ccccc2)CC1 (stereo unspecified) -9.02%
CCOC(=O)CC(NC(=O)c1cc2cc(Br)cc(OC)c2oc1=O)c1ccc(OC)cc1 (stereo unspecified) -0.743%
O=C(NCc1ccc2c(c1)CCN2C(=O)c1ccncc1)c1ccccc1Cl -11.6%
COc1cccc(N2CCN(C(=O)C3CCCN(S(=O)(=O)c4ccc5c(c4)oc(=O)n5C)C3)CC2)c1 (stereo unspecified) -14.7%
COc1ccccc1CCNC(=O)C(=O)NCC(c1ccco1)S(=O)(=O)c1ccc(F)cc1 (stereo unspecified) -12%
Cn1c2ccccc2c2c(C(=O)N3CCN(c4cccc(Cl)c4)CC3)cn(C3CCCCC3)c(=O)c21 -14.8%
COc1ccc(OC)c(CCNC(=O)c2cc3cccc4c3n2CC(C)S4)c1 (stereo unspecified) -48.3%
Cn1c(=O)c2c(nc(CN3CCN(c4ccccc4F)CC3)n2Cc2ccccc2F)n(C)c1=O -25.8%
Cn1c(=O)n(C)c2cc(N3CCOCC3)c(NC(=O)c3ccc(Cl)cc3)cc21 -17.4%
COc1cccc(CNC(=O)CCCn2ncn3c(cc4occc43)c2=O)c1OC 2.31%
CCSc1ncc(Cl)c(C(=O)Nc2ccc(S(=O)(=O)Nc3ncccn3)cc2)n1 -15.4%
Cc1cccc(C(=O)Nc2nc3nc(-c4ccccc4)cc(=O)n3[nH]2)c1 -7.22%
CCCOC(C(=O)OC1CCN(C)CC1)(c1ccccc1)c1ccccc1 -4.79%
O=C(CCS(=O)(=O)c1cc(Br)cc2c1N(C(=O)C1CC1)CC2)N1CCN(c2cccc(C(F)(F)F)c2)CC1 -17.5%
O=C(Cn1c(=O)n(Cc2ccc(C(=O)NCc3ccc4c(c3)OCO4)cc2)c(=O)c2ccccc21)Nc1ccccc1F -13.1%
Cc1cccc(N2C(=O)N(Cc3cccc(C#N)c3)c3ccccc3S2(=O)=O)c1 -6.84%
Cc1ccc(CSc2nc3ccncc3n2Cc2nc(-c3ccccc3C)oc2C)cc1 -5.33%
CCCNC(=O)c1c(NC(=O)c2ccccc2)sc2c1CCC(C(C)(C)C)C2 (stereo unspecified) -12.6%
COc1ccc(CCNC(=O)CS(=O)(=O)Cc2nc(-c3cccc(Cl)c3)oc2C)cc1OC -11.2%
COc1ccc(-c2cc(C(=O)NCCc3ccccc3)c3c(-c4ccc(Cl)cc4)[nH]nc3n2)cc1 -8.96%
C1N2CN3CN1CN(C2)C3 -9.15%
COc1ccc(CNC(=O)c2cccn2-c2nnc(N3CCCCC3)s2)c(OC)c1 -20.8%
CC(C)(C)c1ccc(C(=O)NC(Cc2c[nH]c3ccccc23)C(=O)OCC(=O)c2ccc(Br)cc2)cc1 (stereo unspecified) -13.6%
COc1ccc2c(c1)c1c(c(=O)n(-c3cccc(C)c3)c(=O)n1CC(=O)NCc1ccc(C)cc1)n2C -11.9%
CC(C)N(Cc1nc(-c2ccc(Cl)cc2)no1)C(=O)c1ccco1 -43.4%
CCCc1nnc(NC(=O)C(CC)Sc2nnc3c4ccccc4n(C)c3n2)s1 (stereo unspecified) -11.6%
COc1ccc(CNC(=O)c2sc3nc4n(c(=O)c3c2C)CCC4)cc1 -19%
COc1ccc(-n2ccn(CC(=O)Nc3ccc(C)cc3C)c(=O)c2=O)cc1 -14.6%
Cc1ccc(OCC(=O)Nc2ccc3nn(-c4ccc(C)cc4)nc3c2)cc1 -18.3%
COC(=O)c1cc(C)nc2c1c(=O)nc(SCc1ccccc1Cl)n2C1CC1 -15.2%
Cn1cnc(S(=O)(=O)N2CCC(C(=O)Nc3ccc(Cl)c(C(F)(F)F)c3)CC2)c1 -13.7%
CCOC(=O)N1CCC2(CC1)OC(=O)C(C)=C2C(=O)NCc1ccccc1OC -9.66%
COc1ccccc1N1CCN(C(=O)CNS(=O)(=O)c2ccc(Br)s2)CC1 -1.23%
CCc1nnc2c(Nc3ccccc3Br)nc3ccccc3n12 -6.19%
Cc1cccc(CCNC(=O)CCS(=O)(=O)c2cc3c(cc2C)NC(=O)CO3)c1 3.43%
Cc1nn(CCC(=O)Nc2ccccc2Br)c(=O)c2nn(-c3ccccc3)c(C)c12 -10%
CCOC(=O)c1cc(-c2ccc(C)cc2)n(CC(=O)Nc2ccc(OC)cc2OC)c1C -7.25%
